In PMC6919601, “Identification of Plasmodium dipeptidyl aminopeptidase allosteric inhibitors by high throughput screening” (PLoS ONE, 2019):
About 230 (0.21%) of roughly 110,000 compounds showed an effect of 50% or more. This is one part of the list.

molecular target: DPAP1 (Plasmodium falciparum, UniProt Q8IIJ9); test: primary screen, percent inhibition; read by cleavage of a fluorogenic dipeptide substrate; higher = more effect of the substance; parameters: species or system P. falciparum D10 trophozoite lysates; single well
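Note: 30 min substrate incubation versus DMSO and 10 µM JCP410 controls.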

Chain of DPAP1 (Q8IIJ9 whole entry, looked up): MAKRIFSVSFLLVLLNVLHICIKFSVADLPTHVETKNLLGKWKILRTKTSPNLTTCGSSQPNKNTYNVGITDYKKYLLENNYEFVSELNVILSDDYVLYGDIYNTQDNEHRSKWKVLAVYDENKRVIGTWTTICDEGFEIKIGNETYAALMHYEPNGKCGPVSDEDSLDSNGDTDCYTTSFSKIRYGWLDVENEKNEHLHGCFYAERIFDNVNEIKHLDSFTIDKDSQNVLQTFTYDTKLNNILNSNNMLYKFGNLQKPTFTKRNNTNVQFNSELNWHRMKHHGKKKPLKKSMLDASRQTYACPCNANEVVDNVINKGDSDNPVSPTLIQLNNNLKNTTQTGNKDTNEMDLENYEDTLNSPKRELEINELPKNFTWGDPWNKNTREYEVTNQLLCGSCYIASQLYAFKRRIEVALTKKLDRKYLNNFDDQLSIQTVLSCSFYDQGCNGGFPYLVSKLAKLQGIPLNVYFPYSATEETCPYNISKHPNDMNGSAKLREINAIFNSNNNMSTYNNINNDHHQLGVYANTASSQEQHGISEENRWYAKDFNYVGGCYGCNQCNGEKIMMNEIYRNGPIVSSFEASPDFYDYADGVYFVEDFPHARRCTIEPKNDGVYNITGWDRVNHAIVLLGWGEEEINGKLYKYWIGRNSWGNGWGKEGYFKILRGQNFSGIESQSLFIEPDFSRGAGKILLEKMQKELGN

| SMILES | % Inhibition @ 10 uM |
| --- | --- |
| CCOc1ccc(NC(=O)CN2C(=O)S/C(=C/c3ccc(OC)c(O)c3)C2=O)cc1 | -1.57% |
| c1ccc(C2OCC3Cc4ccccc4C3O2)cc1 (centres unmarked) | 1.63% |
| CC(=O)N1CCC2(CC1)OC(=O)C(C)=C2C(=O)N1CCc2ccccc2C1 | -1.31% |
| O=C(OCCN1CCOCC1)c1ccc(O)cc1O | -1.06% |
| Cc1c(Cl)cccc1NC(=O)c1cnn(-c2ccccc2)c1C | 3.49% |
| CCCCc1ccc(-c2csc(N)n2)cc1 | -9.53% |
| CN(Cc1ccccc1)C(=O)c1cnn(-c2ccccc2)c1-n1cccc1 | -3.35% |
| N#CCCC1(CCC#N)CCCC(CCC#N)(CCC#N)C1=O | 2.79% |
| Fc1cccc(F)c1CN1CCN(c2cccc(Cl)c2)CC1 | 3.48% |
| O=C(C(Cc1ccccc1)n1cccc1)N1CCCCCC1 (centres unmarked) | -4.21% |
| O=C(c1ccc(Cl)c(Cl)c1)N1CCN(c2ccccc2)CC1 | 1.88% |
| CN1CCC(NCC2CCCO2)CC1 (centres unmarked) | 2.98% |
| Sc1nnc(CN2CCSCC2)n1-c1ccccc1Cl | 0.219% |
| CC(C)Cc1ccc(C#N)c(SCC(=O)O)n1 | -3.63% |
| O=C1C(O)=C(c2ccc([N+](=O)[O-])cc2)C(=O)c2ccccc21 | -2.42% |
| COc1ccc(C)cc1NCc1ccncc1 | -1.5% |
| Cc1oc2cc(OCC(=O)O)ccc2c(=O)c1-c1ccc(Br)cc1 | 3.93% |
| CC(C)C[C@H](NS(=O)(=O)c1ccc2c(c1)CN(C(=O)C(F)(F)F)CC2)C(=O)NCC#N | 1.52% |
| COc1ccc(/C=C(\C#N)c2nc3ccccc3s2)c(OC)c1 | 2.45% |
| CCC1CCCCN1C(=O)Cn1c(=O)n(CCCC(=O)NCc2ccco2)c(=O)c2sccc21 (centres unmarked) | -0.591% |
| COc1ccc(OC)c(N2C(=O)CC(N3CCN(Cc4ccccc4)CC3)C2=O)c1 (centres unmarked) | -1.52% |
| COc1ccc(C(=O)C2=C(O)C(=O)N(CCCN3CCOCC3)C2c2ccc(C(C)C)cc2)cc1 (centres unmarked) | -1.25% |
| Cc1nn(Cc2cccc3ccccc23)c(C)c1NC(=O)c1ccc2c(c1)OCO2 | -2.74% |
| CCN(CC)CCNc1nc2c(c(=O)n(C)c(=O)n2C)n1C(C)c1ccccc1 (centres unmarked) | -7.09% |
| Cc1nc2c(C(=O)NC3CCCCC3)cnn2c(C)c1Cc1ccccc1Cl | 7.37% |
| CCC(C)NCc1c(C(=O)O)n(Cc2ccc(F)cc2)c2cc(C)ccc12 (centres unmarked) | 2.6% |

| SMILES | % Inhibition @ 10 uM |
| --- | --- |
| O=C(O)Cc1ccc(NC(=O)c2cccc3ccccc23)cc1 | -0.0217% |
| Oc1ccnc2cc(N3CCCCCC3)c(F)cc12 | -3.2% |
| CC(Sc1nnc(COc2ccc(Br)cc2)n1Cc1ccccc1)C(=O)O (centres unmarked) | 0.00706% |
| COc1ccc(N(CC(=O)Nc2ccc(C)c(C)c2)S(C)(=O)=O)cc1Cl | -5.27% |
| Oc1ccc(-c2cn3c4ccccc4n(CCN4CCOCC4)c3n2)cc1 | -2.99% |
| CCCCN1C(=O)C2Cc3c([nH]c4ccccc34)C(c3cccc(Cl)c3Cl)N2C1=O (centres unmarked) | 7.92% |
| Cc1ccc(CN2CCc3nc(SCC(=O)NCCc4ccccc4)nc(O)c3C2)cc1 | 9.86% |
| CCn1c(N/C(O)=C/C(O)(C(F)(F)F)C(F)(F)F)nc2ccccc21 | 2.57% |
| CCc1c(C#N)c(=O)[nH]c(=O)n1-c1ccccc1 | -0.68% |
| Cc1ccc(C2c3sc(O)nc3SC3C4CC(C5C(=O)N(C(C(=O)O)C(C)C)C(=O)C45)C23)cc1 (centres unmarked) | -3.52% |
| C=CCN(Cc1nc(-c2ccc(OC)c(OC)c2)no1)C(=O)NCCC | 3.27% |
| CCC(C)N(CCNS(=O)(=O)c1ccc(-c2ccc(O)nn2)s1)Cc1cccs1 (centres unmarked) | 0.0489% |
| CCC(=O)Nc1ccc(S(=O)(=O)NC(C)(C)C)cc1 | 1.27% |
| COc1ccc(/C=C2\Sc3ccccc3C2=O)c(OC)c1 | -2.87% |
| C=C(C(=C)S(=O)(=O)c1ccc(Cl)cc1)S(=O)(=O)c1ccc(Cl)cc1 | -3.09% |
| Nc1ccc2oc(-c3ccc(O)cc3)nc2c1 | -4.18% |
| CCCC1=C(C(=O)OCC)C(c2cccc(Br)c2)C(C#N)=C(N)O1 (centres unmarked) | 1.48% |
| CC1(C)N=C(c2ccc(Br)cc2)C(=O)N1 | 6.28% |
| CC1=CC(=C2C(=O)NC(=O)NC2=O)C=C(C)N1CCO | 3.66% |
| COc1ccc2c(c1)n1nnnc1c1nnnn21 | -2.99% |
| COc1ccc(C(=O)CC2(O)C(=O)N(Cc3cccc4ccccc34)c3ccccc32)c(OC)c1 (centres unmarked) | -0.992% |
| COc1ccc(N2C(=O)c3c(C)nc4ccccc4c3C2=O)cn1 | -4.86% |
| CC(Cc1ccccc1)NC(=O)C1CCCNC1=O (centres unmarked) | -0.28% |
| Cc1ccc(S(=O)(=O)N2CCN(C(=O)CSc3nnc(C)c(O)n3)C2c2ccccc2)cc1 (centres unmarked) | -4.73% |
| Cc1oncc1NC(=O)[C@H](CC(C)C)NC(=O)c1ccc(-c2csc(Nc3ccncc3)n2)cc1 | -1.41% |
| C=C(C)[C@@H]1CC=C(CN2CCN(CCO)CC2)CC1 | -6% |

| SMILES | % Inhibition @ 10 uM |
| --- | --- |
| COCCNC(=O)CCCn1c(SCC(N)=O)nc2c(sc3ccccc32)c1=O | 8.28% |
| COc1cc(/C=C/c2nc(C#N)c(NCC(C)C)o2)cc(OC)c1OC | -0.808% |
| COC(=O)c1ccccc1-n1c(CCC(=O)O)ccc1-c1ccc(F)cc1 | -5.85% |
| O=C(Nc1ccccc1C(=O)O)c1ccccc1 | -3.65% |
| Cn1nc(C(=O)NCc2ccccc2Cl)cc1C(=O)O | -1.65% |
| CCc1ccc(C2CC(c3ccccc3)=NN2C(=O)CCCC(=O)O)cc1 (centres unmarked) | -1.33% |
| CN(Cc1ccccc1)S(=O)(=O)c1nnc(NC(=O)CCc2ccccc2)s1 | -6.65% |
| CNS(=O)(=O)c1cn(CC(=O)Nc2ccc(C)cn2)cc1S(=O)(=O)NC | -6.88% |
| Cc1ccc(-c2nc(CSCC(=O)Nc3cc(C)on3)c(C)o2)cc1 | -2.14% |
| CC(C(=O)NCCC(=O)O)N1C(=O)c2ccccc2C1=O (centres unmarked) | -1.81% |
| Cc1cc2nc(CSc3n[nH]c(N)n3)cc(=O)n2o1 | -2.46% |
| COc1ccc(/C=C/C(=O)O)cc1S(=O)(=O)N1CCOCC1 | 1.44% |
| Cc1oc2ncnc(N3CCN(Cc4ccccc4)CC3)c2c1C(=O)O | 1.15% |
| CCNc1nc(F)cc(F)n1 | 2.79% |
| CCCCCC(=O)Nc1ccc(C(C)=O)cc1 | -4.02% |
| CNC(=O)NC1CCCc2ccccc21 (centres unmarked) | -1.74% |
| CC1CCN(C(=O)c2cccc3c2SCCC3=O)CC1 | -8.65% |
| O=C(Cn1c2ccccc2c2cnnc(O)c21)N1CCC2(CC1)OCCO2 | -4.01% |
| CCOc1ccccc1C(=O)Nc1cc(OC)c(Cl)cc1OC | -1.07% |
| COc1ccc2c(c1)c1c(c(=O)n(Cc3ccccc3)c(=O)n1CC(=O)N1CCCC1)n2C | 10.2% |
| Cc1cccn2c(N)c(-c3ccc(F)cc3)nc12 | 6.31% |
| COC(=O)c1cc(-c2ccc(C(C)C)cc2)[nH]n1 | -5.15% |
| Cn1cnc2c(cnn2-c2ccc(Cl)cc2)c1=O | -3.53% |
| Cc1ccc(C(=O)C2=C(O)C(=O)N(CCOCCO)C2c2ccccc2F)cc1 (centres unmarked) | 3.21% |
| Cc1ccc2cc3cc(C(=O)NCC4CCCO4)sc3nc2c1 (centres unmarked) | -2.44% |
| COc1ccc(CN2CCN(C(=O)Cn3cc4c(n3)CCCC4)CC2)c(OC)c1OC | 3.4% |

| SMILES | % Inhibition @ 10 uM |
| --- | --- |
| CCN(CC)S(=O)(=O)c1cc(C(=O)NC2CCCCC2)ccc1C | -0.292% |
| COC(=O)c1cc(S(=O)(=O)N2CCN(c3ccc(N4CCOCC4)nn3)CC2)c[nH]1 | 3.12% |
| CCC(C(=O)O)n1nc(C)c2sc3ccccc3c2c1=O (centres unmarked) | -1.75% |
| O=C(CN1C(=O)CSc2ncccc21)NC1CCCc2ccccc21 (centres unmarked) | -7.93% |
| CCOc1ccc(Br)cc1C1C(C#N)=C(N)Oc2cc(C)oc(=O)c21 (centres unmarked) | -3.48% |
| COc1ccc(CC(=O)c2ccc(C(=O)Cc3ccc(OC)c(OC)c3)cc2)cc1OC | -5.85% |
| N#CC1=C(N)OC2=C(C(=O)c3ccccc3C2=O)C1c1cccc(Cl)c1 (centres unmarked) | 5.37% |
| O=C1NC(=O)C2(C(=O)N1)C(c1ccc(F)cc1)NC(=S)NC2c1ccc(F)cc1 (centres unmarked) | 2.83% |
| CCCc1cc(=O)oc2c(C)c3c(cc12)CN(Cc1ccc2c(c1)OCO2)CO3 | -2.57% |
| Cc1cccc(Cn2nc(N)cc2C)c1 | 0.772% |
| COc1ccccc1N(CN1C(=O)c2ccc(Br)cc2C1=O)C(C)=O | 0.583% |
| O=C(O)C1CCN(C2CC(=O)N(c3cccc(Cl)c3)C2=O)CC1 (centres unmarked) | 0.83% |
| CCCCN1C(=O)c2ccc(C(=O)Nc3ccccc3C(=O)O)cc2C1=O | -12.8% |
| COc1ccc(-c2nc(CS(=O)CC(=O)NCc3ccc(C)cc3)c(C)o2)cc1 (centres unmarked) | 0.689% |
| CCOP(=O)(CN(C)C(C)=O)OCC | -2.18% |
| CC(NC(=O)Cn1cccc1C(=O)c1ccccc1)C12CC3CC(CC(C3)C1)C2 (centres unmarked) | -5.89% |
| Cc1noc(NS(=O)(=O)c2ccc(NC(=O)c3cccc(Cl)c3)cc2)c1C | 9.94% |
| COc1ccc(-n2nnc(-c3nc(-c4ccc5c(c4)OCO5)no3)c2N)cc1Cl | -3.58% |
| CCN1C(=O)N/C(=C/c2c[nH]c3ccc(Br)cc23)C1=O | -1.61% |
| Cc1ccc(NC(=O)C(C)Oc2ccccc2C)cc1 (centres unmarked) | -0.95% |
| CC(C)(C)OC(=O)NC(Cc1c[nH]c2ccccc12)C(=O)NC1CCCCC1 (centres unmarked) | -3.96% |
| CC(CCc1ccccc1)NC(=O)c1csc2c1CCCC2 (centres unmarked) | 1.93% |
| COCCN1C(=O)c2[nH]nc(-c3cc(C)ccc3O)c2C1c1cccc(O)c1 (centres unmarked) | 3.81% |
